Results on 45 sequences are retold here after the supplement of paper PMC11417369.

± gives the standard deviation of the averaged measurements. The list shows a part of the results.

The test system of the experiment is PfAP2-G AP2 domain (GST-tagged). Nature of the experiment: gcPBM binding intensity (ln(normalized median fluorescence intensity)); higher = stronger DNA binding. The method in brief:
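The binding buffer was 1× PBS containing 1% milk, 0.2 mg/ml BSA, 0.5% salmon testes DNA and 0.03% Triton X-100. In it, GST-tagged P. falciparum DNA-binding domains expressed in E. coli were applied for 1 h to an Agilent 4 × 180k array of primer-extended double-stranded 36-bp intergenic genomic probes plus negative controls. Binding intensity, read with Alexa488 anti-GST antibody and a 488 nm scan, is the highest Masliner-normalised natural-log median intensity across replicate spots of either probe orientation.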
Take “ACATTAAAAAAAAAATGTACATAAATATTTTTCCTT [XGTACX_site4361]”: the “gcPBM binding intensity (ln)” value is 11.1 ± 0.59.
In the case of “GTATTACAACGACACACACACCTATATATCATAGTA [CACACA_site7877]” it was 10.07 ± 0.028; in that of “TAATAAAATAAAAATTGTACATTTTATATTTATCAA [XGTACX_site5134]”, 10.9 ± 0.61.
Consider “TATGTGTATTTATTTGCATGTTGGTTGTATTTTTTC [TGCATGCA_site479]”, for which the “gcPBM binding intensity (ln)” value was 10.17 ± 0.042.
For “TCTTCATATGTTTACTGTACGAGAAAAAAAAAAAAA [XGTACX_site6418]”, the “gcPBM binding intensity (ln)” value came to 11.1 ± 0.9.
The result for “ATAAATAATTATATATGTACACATTATGAATGGATA [XGTACX_site8336]” reads 11.4 ± 0.83; that for “AGATTATTTGGACATGCATGTAAAAAAATACGTATA [TGCATGCA_site972]”, 10.5 ± 0.4.
For “AATGAAAAAAAAAAAAAAAAGAAGAAGCAAATGGTA [TGCATGCA_negctrl_site335]”, the “gcPBM binding intensity (ln)” value worked out at 9.35 ± 0.31.
In the case of “TATTCTATACTATATTGTACTATAATATAATATACT [XGTACX_site797]” it was 10.9 ± 0.57; in that of “AAATAATTTATAAATAAATACATTGTTACTTTTTCT [GTGCAC_negctrl_site639]”, 9.62 ± 0.29.
In the case of “ATTTCCCACTTGTGTGTGCGCATGTGTATATATTTA [GTGCAC_site9949]” it was 10.4 ± 0.27.
The result for “TTATTTGTTTGTTGGATGCTTTTTTTTTTTTTTTTT [CACACA_negctrl_site1697]” reads 10.5 ± 0.41; that for “TACATATATATAATATGTACTTATAATATGTATTTA [XGTACX_site2162]”, 11.2 ± 0.73.
With “AAAAGTGATAATAAGAGTACATAAAAAATTTATTAT [XGTACX_site8037]”, the “gcPBM binding intensity (ln)” value is 11.4 ± 0.92.
The result for “ATTAAGGAAAAATTATGTACACAAAAACATATAACA [XGTACX_site2901]” reads 11.5 ± 0.87; that for “TATACATGTTCAATTTGTACATATATAAATATATAT [XGTACX_site3554]”, 11 ± 0.52; that for “ATTTTTTTTTTTTTATGTACATATTAAAAAAAATAT [XGTACX_site1829]”, 11.5 ± 0.9.
The result for “GGTATTACTTTTAGCTGTACTTATTTAAAAGTCAAA [XGTACX_site530]” reads 11.5 ± 0.95; that for “ATTTTTACTTTTTATGCATGCTATATTTTCAACCAT [TGCATGCA_site871]”, 10.1 ± 0.22; that for “ATTCAAAAAAATAAAATAAACATAAATAAACATAAA [TGCATGCA_negctrl_site390]”, 9.655 ± 0.007.
In the case of “CTACACAAGCATTAAACACACAAAAGGGATACTTTG [CACACA_site1083]” it was 10.14 ± 0.071; in that of “GGAAAAAGAAATTAATGTACATGTGGATGTATGAGG [XGTACX_site5468]”, 11.2 ± 0.53.
“AAAATATTTAAGCATTGTACATATTTTTACAAATAC [XGTACX_site5349]”: the “gcPBM binding intensity (ln)” value amounted to 11 ± 0.68.
In the case of “AAAATTCATCCAACAAGTACATAAATATAATATTAT [XGTACX_site4596]” it was 11.3 ± 0.79.
The result for “TTTAATTCCCATATATGTACACAATTTCTTCTATAA [XGTACX_site1465]” reads 11.3 ± 0.71.
In the case of “AGACTTTTTATGAGCACACACATATATTATGGAGTA [CACACA_site1040]” it was 10.3 ± 0.15; in that of “ATAAATTCATTATATTGTACAAACAAATGAAAAAAA [XGTACX_site8304]”, 10.9 ± 0.71.
On to “ATACATAAATATTATTGTACATATATAATATTAATA [XGTACX_site3514]”, for which the “gcPBM binding intensity (ln)” value was 11 ± 0.66.
The result for “AAGAACAGATAAAATCGTACGTGAAACATGAACTTG [XGTACX_site7793]” reads 10.8 ± 0.45; that for “TCTGAAATTTTAGGGGTGCCTGGGACTAAAGAAACG [GTGCAC_site9785]”, 10.4 ± 0.39; that for “TAGAAACCATAAAAATGTACTTAAAAATAGACAATT [XGTACX_site5007]”, 11.2 ± 0.78.
The result for ATGTAAATATTTTGTATGCACTTTGATGCATCTTTT reads 9.9 ± 0.014.
In the case of “TTTTTTTCTTCTTTTCTCTTAAAAATATTGAATATT [CACACA_negctrl_site1762]” it was 9.74 ± 0.14; in that of “TAAGAAATTGAGCGCACACATACATCTGTGGGATGG [CACACA_site1548]”, 10.44 ± 0.085; in that of “ATTGTGGATATTCTTACACACAAATTTATTTATAAA [CACACA_site7267]”, 9.91 ± 0.2.
For the sequence “AAAAAAAAAAAAAAAAAAAAAAAAAAAAAAAAAAAG [CACACA_negctrl_site292]”, the “gcPBM binding intensity (ln)” value amounted to 11.3 ± 0.72.
The result for “TCAAGAGTTATATAAACACACATACATACAGACATA [CACACA_site6998]” reads 10.02 ± 0.064; that for TTTTTTTTTTTTGAGGTGCATATATCAGATCAATAT, 10.1 ± 0.5.
In the case of “CATATATTAATATGTACACACATTAATAAAAAAAAA [CACACA_site7504]” it was 11.4 ± 0.83; in that of “AGCAAAAAAAAAAAAAAAAAAAAAATAATAAAAAAT [TGCATGCA_negctrl_site202]”, 9.36 ± 0.28.
In the case of “GTTTTCTAGTGGGGGTGTACATATTTATATTTAATA [XGTACX_site8378]” it was 11.7 ± 0.86.
ATATATATATAATAAGTGCAAAAAAAAGAAAAAAAT: the “gcPBM binding intensity (ln)” value worked out at 10.1 ± 0.13.
“AGTATTCATAAAAATACACACATGGAAAAATAAAAT [CACACA_site1454]”: the “gcPBM binding intensity (ln)” value turned out to be 9.995 ± 0.078.
In the case of “TATTTTATTTATTGAAGTACATTATACAAAAATAAA [XGTACX_site4824]” it was 11.2 ± 1.
Consider “AGCCACTTAAAATACACACACACCAAAAAAAAAAAA [CACACA_site5497]”, for which the “gcPBM binding intensity (ln)” value was 10.1 ± 0.45.
